Measured values reported in patent US6380204B1, “Atropisomers of 3-heteroaryl-4(3H)-quinazolinones for the treatment of neurodegenerative and CNS-trauma related conditions” (Pfizer INC, priority 1997, dated 2002).

Cc1nc(C=Cc2nc3ccc(F)cc3c(=O)n2-c2cccnc2C)cs1 (as salt: mesylate)
melting point (free base): 223 to 224 °C
melting point (mesylate salt): 230 to 231 °C

Where a name gives a salt, the structure may show the parent alone. Read-outs that look alike come from different tables or passages of the source. Entries with a single value are a further part of the results.
